Reference: PMC6800368, “Rotational symmetry of the structured Chip/LDB-SSDP core module of the Wnt enhanceosome” (Proceedings of the National Academy of Sciences of the …, 2019)
Residue numbers refer to the chain shown, from its start. Names may count otherwise. Results are given in words; binding and its absence hold for the method and conditions named. For some of these results: In cells and extracts the contact can be indirect. Some binding calls cover weakened binding; strength is not graded here. For some of these results: Sequences can lack the tags named with a protein.

T1: DD-LCCD1 (XLdb1 20-244) (Xenopus laevis) (UniProt P70060)
T1 sequence: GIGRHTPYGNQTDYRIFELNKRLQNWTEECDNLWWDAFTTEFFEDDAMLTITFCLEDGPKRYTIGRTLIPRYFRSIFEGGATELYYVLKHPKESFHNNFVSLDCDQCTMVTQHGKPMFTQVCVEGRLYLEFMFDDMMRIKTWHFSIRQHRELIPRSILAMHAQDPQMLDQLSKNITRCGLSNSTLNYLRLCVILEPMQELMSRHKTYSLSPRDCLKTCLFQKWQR

T2: DD-LCCD2 (XLdb1 20-226) (Xenopus laevis) (UniProt P70060)
T2 sequence: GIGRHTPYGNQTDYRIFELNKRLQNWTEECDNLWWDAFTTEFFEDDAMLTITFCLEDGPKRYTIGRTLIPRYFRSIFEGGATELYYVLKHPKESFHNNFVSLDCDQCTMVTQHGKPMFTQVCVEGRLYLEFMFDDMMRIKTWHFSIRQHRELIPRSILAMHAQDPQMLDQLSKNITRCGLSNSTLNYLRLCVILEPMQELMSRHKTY

T3: SSDP-FLAG (Drosophila) (UniProt Q9VEB9)
T3 sequence: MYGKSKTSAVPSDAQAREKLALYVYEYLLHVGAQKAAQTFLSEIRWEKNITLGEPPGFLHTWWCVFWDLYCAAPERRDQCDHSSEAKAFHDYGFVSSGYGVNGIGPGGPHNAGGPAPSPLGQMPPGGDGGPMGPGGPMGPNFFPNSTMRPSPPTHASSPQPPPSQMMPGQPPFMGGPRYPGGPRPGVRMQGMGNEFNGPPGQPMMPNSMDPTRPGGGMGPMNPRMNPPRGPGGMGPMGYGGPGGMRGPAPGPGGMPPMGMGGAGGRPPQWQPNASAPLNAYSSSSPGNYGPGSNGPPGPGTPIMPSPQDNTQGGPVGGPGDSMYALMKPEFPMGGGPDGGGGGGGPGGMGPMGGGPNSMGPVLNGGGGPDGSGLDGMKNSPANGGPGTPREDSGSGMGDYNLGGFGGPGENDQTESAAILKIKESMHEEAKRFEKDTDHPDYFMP

T4: Chip-V5FLAG (Drosophila) (UniProt Q7KVG9)
T4 sequence: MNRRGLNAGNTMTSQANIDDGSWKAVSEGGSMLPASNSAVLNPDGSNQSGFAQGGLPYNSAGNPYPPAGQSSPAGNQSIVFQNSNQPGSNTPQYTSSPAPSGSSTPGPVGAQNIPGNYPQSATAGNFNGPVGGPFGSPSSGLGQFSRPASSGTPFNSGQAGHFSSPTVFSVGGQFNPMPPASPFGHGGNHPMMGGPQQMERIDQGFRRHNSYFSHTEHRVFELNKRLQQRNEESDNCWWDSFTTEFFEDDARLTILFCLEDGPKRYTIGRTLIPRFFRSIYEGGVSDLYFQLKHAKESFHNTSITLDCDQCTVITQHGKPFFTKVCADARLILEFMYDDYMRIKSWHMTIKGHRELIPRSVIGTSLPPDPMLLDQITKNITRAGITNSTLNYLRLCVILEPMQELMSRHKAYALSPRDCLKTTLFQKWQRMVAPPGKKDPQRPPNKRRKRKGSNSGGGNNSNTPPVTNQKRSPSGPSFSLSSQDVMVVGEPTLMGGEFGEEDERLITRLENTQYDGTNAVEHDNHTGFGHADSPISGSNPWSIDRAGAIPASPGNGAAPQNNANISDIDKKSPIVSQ

T5: Chip-V5FLAG L405D (Drosophila) (UniProt Q7KVG9)
T5 sequence: T4 sequence with L405D

T6: Chip-V5FLAG M402E (Drosophila) (UniProt Q7KVG9)
T6 sequence: T4 sequence with M402E

T7: Chip-V5FLAG M406R (Drosophila) (UniProt Q7KVG9)
T7 sequence: T4 sequence with M406R

T8: MBP-LCCD_(Chip) (Drosophila, UniProt Q7KVG9-2 384-436)
T8 construct: Drosophila Chip, LCCD, residues 384-436; also called Chip-LCCD (residues 384 to 436); source: E. coli BL21(DE3)-RIL, bicistronic coexpression with Lip-SSDP_(1–92), purified (Ni-NTA, gel filtration)
T8 sequence (looked up): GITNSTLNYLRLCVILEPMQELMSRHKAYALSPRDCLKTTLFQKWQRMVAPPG

B1: SSDP_(1–92) (coexpressed with XLdb1 DD-LCCD) (domain or fragment, UniProt Q9VEB9 1-92)
chain: MYGKSKTSAVPSDAQAREKLALYVYEYLLHVGAQKAAQTFLSEIRWEKNITLGEPPGFLHTWWCVFWDLYCAAPERRDQCDHSSEAKAFHDY
B2: SSDP-V5 (protein, UniProt Q9VEB9 1-445)
chain: T3 sequence
B3: SSDP-V5 ML (I50E L52E) (protein, UniProt Q9VEB9 1-445)
chain: T3 sequence with I50E, L52E
B4: SSDP-V5 D68R (protein, UniProt Q9VEB9 1-445)
chain: T3 sequence with D68R
B5: SSDP-V5 Mα3 (F66E L69A Y70A) (protein, UniProt Q9VEB9 1-445)
chain: T3 sequence with F66E, L69A, Y70A
B6: SSDP-V5 F58E (protein, UniProt Q9VEB9 1-445)
chain: T3 sequence with F58E
B7: SSDP-V5 I50E (protein, UniProt Q9VEB9 1-445)
chain: T3 sequence with I50E
B8: SSDP-V5 V65K (protein, UniProt Q9VEB9 1-445)
chain: T3 sequence with V65K
B9: Lip-SSDP_(1–92) V65K (domain or fragment, Drosophila, UniProt Q9VEB9 1-92, looked up)
chain: B1 chain with V65K
notes: Drosophila SSDP, residues 1-92; also called SSDP V65K; source: E. coli BL21(DE3)-RIL, purified (Ni-NTA, gel filtration); alone or coexpressed with MBP-LCCD
B10: Lip-SSDP_(1–92) Mα3 (F66E L69A Y70A) (domain or fragment, UniProt Q9VEB9 1-92)
chain: B1 chain with F66E, L69A, Y70A
B11: SSDP-V5 L52E (protein, UniProt Q9VEB9 1-445)
chain: T3 sequence with L52E
B12: SSDP-V5 P55E (protein, UniProt Q9VEB9 1-445)
chain: T3 sequence with P55E

Assays:
[1] = molecular target: T1, DD-LCCD1 (XLdb1 20-244) (Xenopus laevis); experiment: co-purification after bacterial coexpression; bicistronic coexpression of SSDP_(1–92) and DD-LCCD from XLdb1 in E. coli; complexes purified (Ni-NTA, gel filtration)
[2] = molecular target: T2, DD-LCCD2 (XLdb1 20-226) (Xenopus laevis); experiment: as above
[3] = molecular target: T3, SSDP-FLAG (Drosophila); experiment: co-IP; SSDP-FLAG coexpressed with WT or mutant SSDP-V5 in HEK293T LDB1/LDB2 DKO cells
[4] = molecular target: T4, Chip-V5FLAG (Drosophila); experiment: co-IP; Chip-V5FLAG (WT or mutant) coexpressed with SSDP-V5 (WT or mutant) in HEK293T cells
[5] = molecular target: T5, Chip-V5FLAG L405D (Drosophila); experiment: as above
[6] = molecular target: T6, Chip-V5FLAG M402E (Drosophila); experiment: as above
[7] = molecular target: T7, Chip-V5FLAG M406R (Drosophila); experiment: as above
[8] = molecular target: T8, MBP-LCCD_(Chip); experiment: SEC-MALS; MBP-LCCD_(Chip) (WT or Mα6) coexpressed with Lip-SSDP_(1–92) (WT, V65K, Mα3 or ML), purified; Superdex-200 10/300, 2 mg/mL, PBS, 1 mM DTT; PAGE of SEC fractions; both purified

| Binder | binding [3] | binding [4] | also measured |
| --- | --- | --- | --- |
| B1 | – | – | binding [1]: binds; binding [2]: binds |
| B2 | binds | binds | binding [5]: binds; binding [6]: no binding; binding [7]: no binding |
| B3 | – | binds | – |
| B4 | – | binds | – |
| B5 | binds | binds | – |
| B6 | no binding | binds | – |
| B7 | no binding | – | – |
| B8 | – | no binding | – |
| B9 | – | – | binding [8]: no binding |
| B10 | – | – | binding [8]: no binding |
| B11 | no binding | – | – |
| B12 | no binding | – | – |
